Measured values from PubChem BioAssay AID463173 (ICCB-Longwood Screening Facility, Harvard Medical School, 2010).
In all, about 52,000 compounds went through this assay and about 1,700 (3.3%) were called active. No stated cut-off is given here; in the data, active means survival mostly below about 52% (no sharp cut-off); inactive means mostly above about 56%. The list shows a part of the results.

Each compound was assayed on Wild type (assay: S. aureus survival, RN4220 and DeltatarO strains – OD600, teichoic acid synthesis inhibitors, primary screen (AID 463173)). Conditions: S. aureus RN4220 wild type/DeltatarO growth, OD600, 18 h, hits give low values, screened at 18.75 µg/mL (by protocol).
With `CCOc1ccccc1CNC(=O)C1CCN(S(=O)(=O)c2ccc3c(ccn3C)c2)CC1` the survival was inactive: 70%.
With `O=C(Cn1ncc2c([nH]c3ccccc32)c1=O)NCC1CCN(Cc2ccc(F)cc2)CC1` the survival was inactive: 90%.
For `Cc1ccccc1C(=O)Nc1nc(-c2nnn(-c3ccc(C(C)C)cc3)c2C)ns1`, the survival was inactive: 85%.
With `COc1ccc(CN2CCN(c3ncnc4sc5c(c34)CC(C)CC5)CC2)cc1F` (centres undefined) the survival was inactive: 66%.
For `C/C=C/C(=O)N1c2ccccc2C(C)=CC1(C)C`, the survival was inactive: 101%.
With `Cc1cc(Cl)ccc1NC(=O)CN(c1ccccc1Br)S(C)(=O)=O` the survival was inactive: 77%.
In the case of `CCOc1ccc(C(=O)NCCS(=O)(=O)N2CCN(c3ccccc3F)CC2)cc1OCC`, the survival is reported as inactive: 102%.
For `COc1ccccc1N1CCN(CCCNC(=O)c2cnn(-c3ccccc3)c2C2CCN(C(=O)OC(C)(C)C)CC2)CC1`, the survival was inactive: 58%.
`CC(C)NCC(O)COc1ccccc1` (centres undefined) was tested, and the survival was inactive: 112%.
For `Nc1ccnn1C1CCCC1`, the survival was inactive: 100%.
With `N#CC1=C(N)SC(N)=C(C#N)C1c1ccc(O)cc1` the survival was inactive: 84%.
For `CCc1ccc(-n2c(Cc3ccccc3)nnc2SCc2nc(-c3cccs3)no2)cc1`, the survival was inactive: 99%.
`Cn1ccnc1SCC(=O)Nc1ccccc1` was tested, and the survival was inactive: 105%.
With `Cc1ccc(C)n1-c1nnc(N2CCCC(C(=O)NCc3cccc(Cl)c3)C2)s1` (centres undefined) the survival was inactive: 67%.
`CCn1cc(S(=O)(=O)c2cccc(Cl)c2)c(=O)c2cc(F)c(N3CCN(c4ccccc4)CC3)cc21` was tested, and the survival was inactive: 55%.
`Cc1nc2ccn(Cc3cccs3)c(=O)c2cc1C(=O)Nc1ccccc1` was tested, and the survival was inactive: 91%.
In the case of `CC1=C(C(=O)NCc2ccc(Cl)cc2)C2(CCCCC2)OC1=O`, the survival is reported as inactive: 71%.
`Cc1ccc(/C=C/c2onc(C)c2S(=O)(=O)N2CCC(C(=O)NCC(C)c3ccccc3)CC2)cc1` (centres undefined) was tested, and the survival was inactive: 73%.
With `O=C(NCCc1ccccc1)c1cc(Sc2cccc(Cl)c2)nc2ccccc12` the survival was inactive: 78%.
For `Cc1nn(CC(=O)Nc2ccc3c(c2)oc2ccccc23)c(=O)c2ccccc12`, the survival was inactive: 95%.
In the case of `CCCCCn1c(-c2ccc(OC)c(OC)c2)nc2ccccc21`, the survival is reported as active: 1%.
For `Cc1ccc(Cl)cc1N1CCN(S(=O)(=O)c2ccc3c(c2)CCCN3C(=O)C2CCC2)CC1`, the survival was inactive: 97%.
`O=C(NCc1cccc(F)c1)C1CC(O)CN1C(=O)Nc1ccccc1` (centres undefined) was tested, and the survival was inactive: 95%.
In the case of `Cc1ccc(CN2C(=O)c3oc4ccc(C)cc4c(=O)c3C2c2ccc(O)cc2)cc1` (centres undefined), the survival is reported as inactive: 84%.
With `COc1cc(OC)c(NC(=O)Cn2c(=O)oc3cc(S(=O)(=O)N4CCCC4)ccc32)cc1Cl` the survival was inactive: 68%.
With `COc1ccc(NS(=O)(=O)c2ccc3[nH]c4c(c3c2)CCCC4)cc1Cl` the survival was inactive: 60%.
In the case of `CCCn1nnnc1SCC(=O)c1ccccc1`, the survival is reported as inactive: 123%.
In the case of `Cc1ccc(OCC(=O)N(Cc2ccco2)Cc2ccc(C)o2)cc1`, the survival is reported as inactive: 82%.
`CCC(C)NC(=O)c1nn(-c2ccc(C)cc2)c(=O)n(C)c1=O` (centres undefined) was tested, and the survival was inactive: 72%.
With `COc1ccc(-c2cc(C(F)(F)F)n3nc(C(=O)Nc4ccccc4SC)cc3n2)cc1OC` the survival was inactive: 135%.
`COc1cc2c(=O)n(CCC(=O)NCC3CCCO3)c(=O)n(CC(=O)Nc3ccc(C)c(C)c3)c2cc1OC` (centres undefined) was tested, and the survival was inactive: 79%.
With `CC(C)c1cccc(OCCn2c(-c3ccc(Cl)cc3)nc3ccccc3c2=O)c1` the survival was inactive: 76%.
In the case of `COc1cccc(CCNC(=O)c2c(O)nc3ccccn3c2=O)c1`, the survival is reported as inactive: 67%.
With `COCCCNC(=O)C1CCN(c2nn3cc(-c4ccc(F)cc4)nc3s2)CC1` the survival was inactive: 88%.
In the case of `CCOc1ccccc1NC(=O)c1cnn2c(C(F)F)cc(-c3ccccc3)nc12`, the survival is reported as inactive: 52%.
`c1coc(C2NCCS2)c1` (centres undefined) was tested, and the survival was inactive: 99%.
For `Cc1ccccc1C(=O)OCc1cc(=O)n2nc(-c3cccs3)sc2n1`, the survival was inactive: 128%.
`CCOc1ccc(NC(=O)/C(C#N)=C\c2cc(C)n(C)c2C)cc1` was tested, and the survival was inactive: 103%.
`CC1=C(C(=O)Nc2ccccc2)C(c2cccs2)n2nc(SCc3ccccc3F)nc2N1` (centres undefined) was tested, and the survival was inactive: 92%.
With `CN(C)CCN(Cc1ccco1)C(=O)c1oc2ccccc2c1NC(=O)c1ccccc1` the survival was inactive: 88%.
For `Cc1ccccc1NC(=O)CN1CCC(n2nnc3ccccc32)CC1`, the survival was inactive: 90%.
In the case of `Cc1ccc(C)c(NC(=O)c2cc(S(=O)(=O)N3CCCCCC3)ccc2F)c1`, the survival is reported as inactive: 75%.
With `CC(C)OC(=O)CSc1ncnc2c1cnn2-c1ccccc1` the survival was inactive: 100%.
`COc1ccc(CCCc2nnc(SCC(=O)Nc3ccc(OC)cc3)o2)cc1` was tested, and the survival was inactive: 72%.
In the case of `Cc1ccc2c(=O)c(C(=O)c3cccc(Cl)c3)cn(CC(=O)Nc3ccc4c(c3)OCCO4)c2n1`, the survival is reported as inactive: 74%.
`Cn1cc(S(=O)(=O)c2cccc(Cl)c2)c(=O)c2cc(F)c(N3CCN(c4ccccc4)CC3)cc21` was tested, and the survival was active: 1%.
With `O=C(CSc1nnc(NC(=O)Nc2ccccc2)s1)Nc1cccc(F)c1` the survival was inactive: 75%.
For `CN1C(=O)Cc2cc(S(=O)(=O)CCC(=O)Nc3ccc(F)c(Cl)c3)ccc21`, the survival was inactive: 112%.
For `O=C(Nc1cc(F)ccc1F)N1CCC(CN2CCCC2)CC1`, the survival was inactive: 82%.
For `O=C(CSc1nc2ccccc2o1)c1ccc2c(c1)OCCO2`, the survival was inactive: 108%.
With `CCOC(=O)c1ccccc1NC(=O)N1CCC(CN2CCCCC2)CC1` the survival was inactive: 72%.
For `CCOc1ccc(NC(=O)CN2CCCN(Cc3cc(C)ccc3C)S2(=O)=O)cc1`, the survival was inactive: 86%.
`Cc1ccc(NC(=O)C(C)Sc2nc(=O)cc(N)n2-c2ccccc2)cc1` (centres undefined) was tested, and the survival was inactive: 77%.
With `CCOC(=O)c1cccc(NC(=O)CCn2nc(C)c(S(=O)(=O)N3CCCCC3)c2C)c1` the survival was inactive: 120%.
`CCCC(=O)Nc1ccc(-c2nc3ncccc3o2)cc1C` was tested, and the survival was inactive: 89%.
In the case of `COc1cc(C2c3c(-c4cc(C)ccc4O)n[nH]c3C(=O)N2CCCO)ccc1OCCC(C)C` (centres undefined), the survival is reported as inactive: 67%.
In the case of `CCc1ccccc1Nc1cc(C(=O)NC(C)c2ccccc2)c2ccccc2n1` (centres undefined), the survival is reported as inactive: 94%.
`CCCc1nn2c(=O)cc(COC(=O)c3ccccc3NC(=O)c3ccc(Cl)cc3)nc2s1` was tested, and the survival was inactive: 101%.
In the case of `CCOc1ccc(NC(=O)C2CCN(c3nnc(-n4c(C)ccc4C)s3)CC2)cc1`, the survival is reported as inactive: 88%.
